For 22 molecules, binding signal results are on record in publication PMC12136788.

T1: UNK ZnF1-3 (human, UniProt Q9C0B0 31-174)
T1 sequence: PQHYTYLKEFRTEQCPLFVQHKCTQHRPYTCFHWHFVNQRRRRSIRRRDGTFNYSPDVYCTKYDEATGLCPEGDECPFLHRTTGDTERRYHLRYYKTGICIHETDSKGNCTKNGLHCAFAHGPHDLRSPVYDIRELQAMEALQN

B1: chr10:33190432:33190433:-_ENSG00000150093_ENST00000302278|hu_mus|hu_hu_hu_mus_True|58_68 (ssRNA)
RNA: GGGAGUUCUACAGUCCGACGAUCUACAUUUUCCAAACCUGCAUGUGAAUAAAACCCUGGCCACAGAGCCCUAAAGCUACCUAACUGUGACUAAGAUGCUGCUGCUGUGAGCUUGGUGUUGCAAAAUCCGCCUGAGUAGGAUUCCAACAGAGGAUUGAGCAUCA
B2: chrX:39613801:39613802:+_ENSMUSG00000025862_ENSMUST00000069619|mus_mus|FALSE|FALSE (ssRNA)
RNA: GGGAGUUCUACAGUCCGACGAUCCAAGUUUAAAGGUGGAUGGCUCUCCCCUUGUGGAUUAGGCUCCUUAAAAGCAAAUUCUAUACCAUCUUUGUGGAGCAUGGCAAUGGCUUCUCUGGUUUUCAAUUGAUCAAGUCCAAAAGUCAACAGAGGAUUGAGCAUCA
B3: chr12:16043544:16043545:+_ENSG00000023734_ENST00000419869|hu_mus|FALSE|FALSE (ssRNA)
RNA: GGGAGUUCUACAGUCCGACGAUCUUUGUUCAAGUCAUAUAUGCGCAGCAGUUUAUCCUGUCCCCCAGUUAGCAGGUAAUUGCUAUCCUGUGUGAAAUCCACAGUCUUGACAAUGUGCUUAUGAGCCAGGGUCAUCAAUUCAUCCAACAGAGGAUUGAGCAUCA
B4: 98028052_98028867_1086_CDS_ENSMUSG00000018160_ENSMUST00000107545|mouse|control|control (ssRNA)
RNA: GGGAGUUCUACAGUCCGACGAUCUGGAAUUGGCUGGGGAAAUUUCAAGAAGAAACACGCAGGAAGAUCAACACUGUUGGCACUAGUGACUGCGGAGAAAGAAGGGGUCCAUUUGUUGUCAGCUGGGUGUGACCCCAUAAUUAACAACAGAGGAUUGAGCAUCA
B5: chr19:34925787:34925788:+_ENSG00000126261_ENST00000246548|perfect_dup|motif|central (ssRNA)
RNA: GGGAGUUCUACAGUCCGACGAUCAAGAUACCCAGCUGUUCCACUUUCAAUAAGAGGAACAUCAGCUGCCAGGCACAUUCGGUUAACAUGGUUUCGGGCAGCUCUGUUAUCUAAAGCAUUCAUAACCAGUAUAAACUGUCGGAACAACAGAGGAUUGAGCAUCA
B6: chr3:16083472:16083473:+_ENSMUSG00000047213_ENSMUST00000108345|mus_hu|FALSE|FALSE (ssRNA)
RNA: GGGAGUUCUACAGUCCGACGAUCCGAACCGUUUUGUACUGAAACUUUAUUUCCUUGCCCUUUAGGUCUCUGAUCCACGCUAGUGGCUGACAUUCUUCACCGCAACCCGAGAGCCGCCGCCGCCGCCGCUGCCUGGGCCUCUCCCAACAGAGGAUUGAGCAUCA
B7: chr6:31457689:31457690:+_ENSMUSG00000025609_ENSMUST00000142469|perfect_dup|FALSE|FALSE (ssRNA)
RNA: GGGAGUUCUACAGUCCGACGAUCUGAUCAGGUCUACCAGGUUGCCUUUAGGAGGAGUCAUGCUGUCAGGAAAGAAAUUUACUAAGGUGUCAAAGAGCUGAGUUCUUUGAGCAUAGGUAUGAUCCACAUCUGAAAAGCCAUAAUCAACAGAGGAUUGAGCAUCA
B8: chr2:144079538:144079539:-_ENSMUSG00000027423_ENSMUST00000110030|mus_hu|FALSE|FALSE (ssRNA)
RNA: GGGAGUUCUACAGUCCGACGAUCGGCCUUAUCCAGAGCUUUGUUUGAGUUCUCAUAGUCAAUGAGGGCUUUGGUGCGUCUGUAUAAGAGAUCCUUAGCAGCUUCAAUGUUGAGCAUGUAGUAUCGGAGGAGCUCUGUUAGCUUCAACAGAGGAUUGAGCAUCA
B9: chr8:95844298:95844299:+_ENSG00000164941_ENST00000520526|hu_hu|FALSE|FALSE (ssRNA)
RNA: GGGAGUUCUACAGUCCGACGAUCCUAGAGUUCUCAUCGUAUGGACAUAAAGAUCCUUGUUUAAUUUUAGGGCUGCUUCUAGUACCAAAAUAGAAUCAGCAGCUUGUUCUUUGAGCACUUUCAAAAUGUUUUCUGUUAGCUCUUCAACAGAGGAUUGAGCAUCA
B10: chr4:95690885:95690886:+_ENSMUSG00000028572_ENSMUST00000156910|mus_mus|mus_mus_mus_hu_False|78_78 (ssRNA)
RNA: GGGAGUUCUACAGUCCGACGAUCUUUAGAAAAUGUUAAAUACCAUGCUAAAAUAUUGUAAUUUUAAUAUUUUAUUUUACCAGAAGUCACAGGCAAGCAGACACUACAAGAAUAUAUGAAAAUGAAACUCAACAAUAUAACUGUCAACAGAGGAUUGAGCAUCA
B11: chr10:62048396:62048397:-_ENSMUSG00000020075_ENSMUST00000045866|mus_mus|FALSE|FALSE (ssRNA)
RNA: GGGAGUUCUACAGUCCGACGAUCGGCCUCUACAGCUCCCUUCUCCUCAAUCAGCUUCUCAGCUGACUGCUUGAAAUGGCUAAUGGCAGUGGGAGGCACAGAAUCCAAGAGCCUGAUGGCGUCUUUGCUGGAGGCUUUUAUUAUCAACAGAGGAUUGAGCAUCA
B12: chr7:141441981:141441982:+_ENSG00000106028_ENST00000265304|hu_hu|motif|central (ssRNA)
RNA: GGGAGUUCUACAGUCCGACGAUCCUCAUGUCUUACAAACUGACGAAGUACCUGUAAUACAGGUCUUCGAAACAUGGCUUCGGUUUUCUUUUCUUACAGUCUAAUCUUUAGGCUUUUCCUGACGAUCUAACCCGAGCAGCCCAGCAACAGAGGAUUGAGCAUCA
B13: chr4:115894766:115894767:+_ENSMUSG00000028698_ENSMUST00000030464|mus_hu|mus_mus_mus_hu_True|78_78 (ssRNA)
RNA: GGGAGUUCUACAGUCCGACGAUCUUCCACACGGAAAUGUACUUCGGGUUUUCCAACGCCAGUACAAAGUCCGGCCAAACUACCCGAACAGGGUCCUCCCCCUCUCUCCUACAGAACACAACAAAAUGCCCCCGAACUUUCAAGCAACAGAGGAUUGAGCAUCA
B14: chr17:64631184:64631185:-_ENSMUSG00000024083_ENSMUST00000172818|mus_hu|FALSE|FALSE (ssRNA)
RNA: GGGAGUUCUACAGUCCGACGAUCUGGCUUAUUAUAGAGAAAUCUUUAGCAACGUAAGUUUAACCAGUAAGUGUCACAACUGAUCAACAGUACUUAAAAGGAAACAAACAAAAAUCACACUAGCCACAAAUUUCCACCAUAUACCAACAGAGGAUUGAGCAUCA
B15: chr4:76721835:76721836:+_ENSG00000138768_ENST00000264904|hu_mus|motif|central (ssRNA)
RNA: GGGAGUUCUACAGUCCGACGAUCGUUUGGCUGGGGUUUCUGAGACGCUCUGGAAUAUAACUCAUGUUUGCUAAUAAAUCCGGGUUUCUCUAUGAAAUUCUCUUUGCCAAUCCUCUUCUCUAUUAGUUGCUUUAGUUUCUCUUUCAACAGAGGAUUGAGCAUCA
B16: chr10:76732271:76732272:+_ENSMUSG00000020260_ENSMUST00000020493|mus_mus|FALSE|FALSE (ssRNA)
RNA: GGGAGUUCUACAGUCCGACGAUCACUGCAGCUUUCUUGAAAAAGUAUUUUAUUAAUACGCUUGGAUGUACAAAUGGAAAAUAAAUAUGUGAUUCUAGCUGGUCAGCUGACUGGGCCACGGGGCCCUGUCUGUGCUCAGAGUCUCAACAGAGGAUUGAGCAUCA
B17: chr1:150192712:150192713:-_ENSG00000143401_ENST00000314136|hu_mus|motif|central (ssRNA)
RNA: GGGAGUUCUACAGUCCGACGAUCGCACCAAACUACACCUGUGUAAAAGCAACAAUGUUUUAAUUAUGGGCUAAAAAUGUCGGAUACAUUAAGCAUGAAUUAUAAAAAUCCAGAAUCUAAAUACAGUGCUAGAGAAUUUCACUACAACAGAGGAUUGAGCAUCA
B18: chr6:40197388:40197389:+_ENSMUSG00000057716_ENSMUST00000061740|mus_mus|mus_mus_mus_hu_False|28_38 (ssRNA)
RNA: GGGAGUUCUACAGUCCGACGAUCGAGACACUGGGGUGGAUUUAUUCCACCUCUGUUUGGGUGCUAGCCACUAAGACUGUUAUUUUGGGAUUCAUGGCCUUGAAGAUCAAGAGGAAAAGGAAGAGGAUGGAAAGAGUCAAGAGUCAACAGAGGAUUGAGCAUCA
B19: chr5:128448638:128448639:+_ENSG00000066583_ENST00000173527|hu_mus|hu_hu_hu_mus_False|8_48 (ssRNA)
RNA: GGGAGUUCUACAGUCCGACGAUCGGCACUCGCCUUAAUUAGGUUCUGAAUUUCCUUGAACUUCGGGUGGUCUUUGUCAGCCACCAGCUGAAGCAGAACAGCCUCACUAGUGGUCACGAUGAUCCCAGUUCGAGCGAGACGCUCCAACAGAGGAUUGAGCAUCA
B20: chr11:69650846:69650847:-_ENSMUSG00000051790_ENSMUST00000108634|mus_mus|FALSE|FALSE (ssRNA)
RNA: GGGAGUUCUACAGUCCGACGAUCGAACCCCGCAGUGGGAAAGGCUGAGCCAGGAGGGAGCAAUGGGACAGGACUAGAUUGGAGAUCCACUGGUUCUCUGGGAUGGCUUCGAGGGACCAGGAGGCGGUUCAGGCGACAGAUCCUCAACAGAGGAUUGAGCAUCA
B21: chr22:19452774:19452775:-_ENSG00000070010_ENST00000399523|hu_hu|hu_hu_hu_mus_False|8_38 (ssRNA)
RNA: GGGAGUUCUACAGUCCGACGAUCCUUCUCAUUGUAGUUGAUAGCAAUCACAUCUCCAGUCGUCAGACAGGCGAAGUUUCUCAAUGCAUUUUCUAAUACGGCUUUGGGGUUGGUAAUAUCCAGGAAGUCAGGGCUCUGAGGCUGCAACAGAGGAUUGAGCAUCA
B22: chr17:56552419:56552420:-_ENSMUSG00000013236_ENSMUST00000086828|mus_mus|mus_mus_mus_hu_False|28_108 (ssRNA)
RNA: GGGAGUUCUACAGUCCGACGAUCAAAGUUUUUUUCUUUUAAAAAAAAUGAAAUGUCACGGGAUACAGUUACACUGAGAGUUUUAAAAGAAAGCUGGAUUCUGGUCCUUGCCAAAAGUCCCCAGGCUGCAGAGCGGGGAGGAGCCAACAGAGGAUUGAGCAUCA

This is one part of the list.

This test deals with T1, UNK ZnF1-3. Put plainly: nsRBNS (natural sequence RNA bind-n-seq); RBNS binding buffer (assumed for nsRBNS): 25 mM Tris pH 7.5, 150 mM KCl, 3 mM MgCl2, 0.01% Triton X-100, 500 ug/ml BSA, 20 U/ml SUPERase-In, 4 C; UNK is unkempt and MSI1 is Musashi-1; names of the RNAs are library labels; protein concentration not given here; high values mean tight binding.
B1: the binding signal stood at 0.961 enrichment R.

As to B2, the binding signal turned out to be 1.01 enrichment R.

The molecule B3 registered a binding signal of 0.834 enrichment R.

In the case of B4, the binding signal was 1.74 enrichment R.

In turn, B5 gave a binding signal of 0.496 enrichment R.

In the case of B6, the binding signal was 0.725 enrichment R.

Molecule B7 returned a binding signal of 1.71 enrichment R.

For the molecule B8, the binding signal is 0.756 enrichment R.

In the case of B9, the binding signal was determined as 0.614 enrichment R.

B10 showed a binding signal of 2.12 enrichment R.

As to B11, the binding signal was 0.665 enrichment R.

In turn, B12 gave a binding signal of 0.799 enrichment R.

With B13, the binding signal was found to be 0.862 enrichment R.

Take B14: the binding signal is 1.42 enrichment R.

B15 registered a binding signal of 0.338 enrichment R.

The molecule B16 gave a binding signal of 0.929 enrichment R.

As to B17, the binding signal amounted to 1.5 enrichment R.

B18 registered a binding signal of 1.41 enrichment R.

In turn, B19 displayed a binding signal of 0.598 enrichment R.

The molecule B20 yielded a binding signal of 2.79 enrichment R.

With B21, the binding signal stood at 0.941 enrichment R.

B22 gave a binding signal of 1.4 enrichment R.
